Source: US11192863B2, “Antiviral compounds and methods” (Biotron Limited, priority 2003, dated 2021)

Experiments:
P7 peptide channels = P7 peptide channels (Hepatitis C virus genotype 1a, UniProt P27958, L790F)
Vpu ion channel = Vpu ion channel (Human immunodeficiency virus type 1 group M subtype B, UniProt P05919); settings: for Results (Compounds Inhibiting the Vpu Ion Channel in Bilayers): drug 100 μM in CIS and TRANS chambers, Vpu N-terminal peptide (residues 1-32), number of experiments x category
MHV E protein = MHV E protein (Murine coronavirus, UniProt P0C2R0); settings: halo of growth score; E. coli expressing E protein at 37° C.
HCV p7 protein = HCV p7 protein (Hepatitis C virus genotype 1a, UniProt P27958, L790F); settings: halo of growth score; E. coli expressing p7 at 37° C.
[1] = molecular target: MHV E protein ion channel (Murine coronavirus, UniProt P0C2R0); assay: MHV E protein ion channel in planar lipid bilayers; type: biochemical, Murine hepatitis virus; settings: 100 μM added to the cis chamber; FIG. 12

Compound | P7 channel activity (in words) (P7 peptide channels; 100 μM HMA, 4 experiments) | P7 sodium channels (500/50) (in words) (P7 peptide channels; 500 μM HMA, 2 experiments) | P7 channel activity after addition of HMA (in words) (P7 peptide channels; 2 μl of 50 μM HMA to the cis chamber) | channels formed by the P7 peptide (in words) (P7 peptide channels; bilayers) | concentration at which the Vpu channel is blocked (as low as) (Vpu ion channel; bilayers) [µM] | Results (Compounds Inhibiting the Vpu Ion Channel in Bilayers) (Vpu ion channel) | MHV E protein Inhibition (score) (MHV E protein) | HCV p7 protein Inhibition (score/# of times tested) (HCV p7 protein) | current flow through the MHV E ion channel (in words) [1]
NC(N)=NC(=O)c1nc(Cl)c(N2CCCCCC2)nc1N [5-(N,N-hexamethylene)amiloride] | Block of channel activity | blocked | disappearance of the channel activity | blocked | 25 | 1x Strong block; | 1.1 | 1.28/4 score | –
N=C(N)NC(=O)/C=C/c1cccc(Br)c1 [(3-Bromocinnamoyl)guanidine] | – | – | – | – | – | 3x partial-strong block | 2.4 | 2.92/3 score | –
N=C(N)NC(=O)/C=C/c1cccc(Cl)c1 [(3-Chlorocinnamoyl)guanidine] | – | – | – | – | – | 2x strong block; 2x partial | 0.4 | 2.75/3 score | –
NC(N)=NC(=O)/C=C/C=C/c1ccccc1 [(5-Phenyl-penta-2,4-dienoyl)guanidine] | – | – | – | – | – | 6x strong block | 1.4 | 2.13/1 score | –
O=C(CCc1ccccc1)NC(=Nc1ccccc1)NC(=O)CCc1ccccc1 [N,N′-bis(3phenylpropanoyl)-N″-phenylguanidine] | – | – | – | – | – | 7x weak block | 0.8 | 2.0/1 score | –
N=C(NC(=O)CCc1ccccc1)Nc1ccccc1 [N-(3-phenylpropanoyl)-N′-phenylguanidine] | – | – | – | – | – | 1x strong blocks | 0.8 | 2.0/1 score | –
NC(N)=NC(=O)/C=C/c1ccccc1 [cinnamoylguanidine] | – | – | – | – | – | 3x weak block | 1.1 | 1.00/1 score | greatly reduced current flow
